Measurements published in publication PMC4336329 (PLoS ONE, 2015).
Among all 310,000 compounds or so, about 2,200 (0.71%) showed an effect of 50% or more. Effects have a minus sign here. The list shows a part of the results.

target: human ether-à-go-go-related gene (hERG) potassium channel (human, UniProt Q12809); experiment: primary screen, population patch clamp on CHO cells stably expressing hERG
Sequence (Q12809 whole entry, looked up): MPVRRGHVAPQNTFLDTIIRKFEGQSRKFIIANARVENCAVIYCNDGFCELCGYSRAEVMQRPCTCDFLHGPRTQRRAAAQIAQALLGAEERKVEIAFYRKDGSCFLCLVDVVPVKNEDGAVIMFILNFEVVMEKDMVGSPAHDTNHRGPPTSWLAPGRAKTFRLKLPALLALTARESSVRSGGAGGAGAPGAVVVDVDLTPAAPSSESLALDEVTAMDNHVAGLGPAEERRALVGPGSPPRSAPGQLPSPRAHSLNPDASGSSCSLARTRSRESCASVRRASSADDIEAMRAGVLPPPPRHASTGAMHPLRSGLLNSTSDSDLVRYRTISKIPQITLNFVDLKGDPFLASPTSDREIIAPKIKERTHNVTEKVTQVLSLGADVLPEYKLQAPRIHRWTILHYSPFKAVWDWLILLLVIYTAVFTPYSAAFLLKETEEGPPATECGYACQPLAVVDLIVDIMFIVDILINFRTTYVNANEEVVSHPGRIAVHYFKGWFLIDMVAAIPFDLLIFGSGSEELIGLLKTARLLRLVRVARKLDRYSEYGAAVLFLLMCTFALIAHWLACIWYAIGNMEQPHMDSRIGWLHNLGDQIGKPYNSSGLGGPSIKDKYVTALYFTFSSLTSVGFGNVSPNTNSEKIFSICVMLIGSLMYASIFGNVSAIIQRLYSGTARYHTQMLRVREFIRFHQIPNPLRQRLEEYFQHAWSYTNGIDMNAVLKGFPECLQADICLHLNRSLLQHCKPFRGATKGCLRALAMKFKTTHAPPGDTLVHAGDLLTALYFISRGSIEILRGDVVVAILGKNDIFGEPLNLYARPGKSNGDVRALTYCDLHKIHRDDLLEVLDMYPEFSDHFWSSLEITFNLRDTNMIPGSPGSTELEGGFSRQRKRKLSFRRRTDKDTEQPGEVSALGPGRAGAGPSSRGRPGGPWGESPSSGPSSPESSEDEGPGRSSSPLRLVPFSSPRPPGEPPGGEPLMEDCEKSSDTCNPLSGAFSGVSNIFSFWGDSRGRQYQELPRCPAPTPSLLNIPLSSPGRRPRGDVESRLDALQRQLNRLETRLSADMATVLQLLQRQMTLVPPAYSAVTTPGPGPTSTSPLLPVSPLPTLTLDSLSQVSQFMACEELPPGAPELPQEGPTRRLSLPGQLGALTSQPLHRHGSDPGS

Compound	hERG current change (%, negative = inhibition) at 1uM [%]
O=C(/C=C/c1ccccc1)NNC(=O)c1ccco1	9.8
O=C1c2ccccc2C(=O)N1Cc1cccnc1	15.6
COc1ccc(-c2cc(C)no2)cc1S(=O)(=O)Nc1cccc(CN2CCCC2)c1	4.37
Brc1cccc(OCCCCN2CCCCC2)c1.O=C(O)C(=O)O	-43.2
COc1ccc(NC(=S)NN(C)C(=S)Nc2ccc(OC)cc2)cc1	12.9
CCSc1nc2ccccc2n1C(=O)Oc1ccccc1	-1.11
Cc1cc(C)c(S(=O)(=O)Nc2cc(SCC(=O)O)c(O)c3ccccc23)cc1C	2.39
CNC(=O)CNC(=O)Nc1ccc(Cl)c(Cl)c1	12.9
COc1cc2oc3cc(C#Cc4ccc(N)cc4)ccc3c(=O)c2cc1OC	16
CSCC[C@H](NC(=O)Nc1ccc(C)cc1)C(=O)O	15.1
COc1ccccc1-c1cc(C(=O)Nc2cc(C)nn2-c2ccccc2)no1	8.1
COc1ccc(CNC(=O)c2cc3c(=O)[nH]c4ccccc4c3n2C)cc1	15.1
O=S(=O)(c1cnc[nH]1)N1CCCCCC1	11.6
CC/C=C(\NC(C)=O)c1ccccc1	9.71
Cc1ccc(C(=O)NNC(=O)c2ccco2)cc1	8.61
O=C(Cc1ccccc1)NNC1CC(=O)N(c2ccc(Cl)cc2)C1=O (stereo not drawn)	7.52
COC(=O)c1sccc1NC(=O)c1c(F)c(F)c(F)c(F)c1F	7.4
COc1cc2c(cc1NC(=O)C(C)Sc1ccc(C)cc1)oc1ccccc12 (stereo not drawn)	17.2
CN(CC(=O)NCCc1ccc(S(N)(=O)=O)cc1)S(=O)(=O)c1cccc2nsnc12	3.75
CSc1cccc(NC(=S)N2CCCN(Cc3ccc(F)cc3)C2)c1	-2.18
Cc1ccc(C(NC(=O)c2cccc(S(=O)(=O)N3CCN(C)CC3)c2)c2ccccc2)cc1 (stereo not drawn)	1.78
COc1ccc(Cc2nnc(NC(=O)C3CCCO3)s2)cc1OC (stereo not drawn)	13.6
O=C(CSc1nnc2c3c4c(sc3ncn12)CCCC4)NCc1ccco1	13.2

Compound	hERG current change (%, negative = inhibition) at 1uM [%]
COc1ccc(S(=O)(=O)N2CCOCC2)cc1NC(=O)c1ccccc1C	15.2
CCCCN1C(=O)NC(c2ccc(OC)cc2)C(C(=O)OCc2ccccc2)=C1C (stereo not drawn)	6.49
Cc1ccc(C(C(=O)NCc2ccccc2)N(Cc2ccco2)C(=O)c2snc(C(N)=O)c2N)o1 (stereo not drawn)	8.42
COc1ccc(NC(=O)Cc2ccc(C)cc2)cc1S(=O)(=O)N1CCCCC1	7.71
Cc1ccc(C(=O)OCC(=O)NC2CCCc3ccccc32)o1 (stereo not drawn)	8.97
CC(C)(C)C(=O)Nc1ccc(C(=O)NCc2cccnc2)cc1	-7.1
COc1ccc(OC)c(C(=O)COC(=O)c2ccccc2O)c1	4.9
COCCNC(=O)c1cnn2c(C(F)F)cc(-c3ccc(C)cc3)nc12	2.03
CCc1ccc2c(c1)cc(CN(C(=S)Nc1ccccc1C)C1CC1)c1nnnn12	3.24
Cc1ccc(S(=O)(=O)c2nc(S(=O)(=O)c3ccc(C)cc3)c(NCc3ccco3)s2)cc1	4.27
NS(=O)(=O)c1ccc(CNC(=O)/C=C/c2ccco2)cc1	10.1
Cc1ccc2nc(SCC(=O)Nc3ccc4c(c3)CCC4)[nH]c2c1	9.49
CCOc1ccc2nc(SCC(=O)NC(=O)NCc3ccco3)[nH]c2c1	-0.64
C=CCOc1ccc(/C=N/n2nnnc2N)cc1OC	14
Cc1ccc(Cn2cc(S(=O)(=O)c3ccc(Cl)cc3)c(=O)c3cc(F)ccc32)cc1	14.5
O=C(O)c1cccc(-c2ccc(/C=N/n3cnc4sc5c(c4c3=O)CCCC5)o2)c1	10.5
Nc1nc(Cl)cc(NCCc2ccccc2)n1	13.5
O=C(NC(=S)Nc1ccccc1N1CCCCC1)c1ccccc1	13.5
N#CC1=C(N)Oc2cc3ccccc3cc2C1c1cccnc1 (stereo not drawn)	13.6
CCOC(=O)c1[nH]c(C)c(C(=O)N(C)C)c1C	8.79
CCOC(=O)c1ccccc1NC(=O)c1cn(-c2ccc(OC)cc2)c(=O)c2ccccc12	0.516
O=C(N/N=C\c1ccc(Oc2ccccc2)cc1)c1csnn1	-27.9
